{"source": "PubChem BioAssay AID2100", "about": "(National Center for Advancing Translational Sciences (NCATS), 2009)", "note": "In all, about 300,000 compounds went through this assay and about 1,200 (0.4%) were called active. Inconclusive means that the source gave no clear call. Such entries were picked first, then a sample of the others. Calls come from the whole dose curve; as a rule, active = well fitted inhibition curve with a large enough effect; inconclusive = small, poorly fitted or top-dose-only effect, or another doubt; inactive = no such curve, though single readings can be large or run the other way. Potencies beside an inconclusive call are fits to weak or partial responses and may not hold up. Potency is the fitted concentration of half-maximal effect.", "data": [{"target": "Lysosomal alpha-glucosidase (Homo sapiens) (UniProt P10253)", "assay": "qHTS Assay for Inhibitors and Activators of Human alpha-Glucosidase Cleavage of Glycogen", "details": "recombinant GAA, glycogen substrate, Amplex Red glucose oxidase fluorescence; series mostly up to 76.4 µM", "how_it_was_run": "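qHTS, 1536-well; enzyme 4 nM final; cpd up to 77 uM; substrate bovine liver glycogen 30 ug; 50 mM citrate/phosphate pH 5.0, 0.01% Tween-20; 37 C, 40 min; Amplex Red detection 45 min RT; Hill fit → AC50.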", "values": [{"compound": "CCOc1ccc(N(CC(=O)Nc2cc(OC)cc(OC)c2)S(=O)(=O)c2c(C)[nH]c(=O)[nH]c2=O)cc1", "Potency": "inactive"}, {"compound": "N#C/C(=C\\c1c(N2CCOCC2)nc2ccccn2c1=O)C(=O)NC1CCS(=O)(=O)C1", "note": "(configuration not stated)", "Potency": "inconclusive: 10 µM [inhibitor, single point]"}, {"compound": "CCC(=O)NC(Nc1sc2c(c1C(=O)OC)CCN(C)C2)(C(F)(F)F)C(F)(F)F", "Potency": "inconclusive: 28.2 µM [activator, single point]"}, {"compound": "O=C(Nc1ccc(Br)cc1F)c1sccc1-n1cccc1", "Potency": "inactive"}, {"compound": "COc1ccc(/C=N/c2c(-c3ccc(OC)cc3)nc3n2CCS3)cc1", "Potency": "inconclusive: 44.7 µM [inhibitor, single point]"}, {"compound": "C/C(=N\\NC(=S)Nc1cccc(C)c1)c1cccc(N)c1", "Potency": "inconclusive: 8.91 µM [inhibitor, full curve, poor fit]"}, {"compound": "COc1ccc2c(c1)NC(c1ccc(N(C)C)cc1)c1cccn1-2", "note": "(configuration not stated)", "Potency": "inconclusive: 50.1 µM [activator, single point]"}, {"compound": "COc1ccc(N(Cc2ccccc2)C(=O)c2nc(S(C)(=O)=O)ncc2Cl)cc1", "Potency": "inconclusive: 3.98 µM [inhibitor, partial curve]"}, {"compound": "CC1(C)CC(=O)C(C=Nc2ccc(N)cc2)=C(O)C1", "Potency": "inconclusive: 31.4 µM [inhibitor, partial curve]"}, {"compound": "COc1cc(C(=O)N/N=C/c2cn(Cc3ccccc3)c3ccccc23)ccc1O", "Potency": "inconclusive: 12.6 µM [inhibitor, partial curve]"}, {"compound": "CCc1ccc(NC(=O)CCc2c(C)nc3nc(-c4cc(OC)cc(OC)c4)nn3c2C)cc1", "Potency": "inconclusive: 11.2 µM [inhibitor, full curve]"}, {"compound": "COc1ccc2ccccc2c1/C=N/NC(=S)NCCN1CCOCC1", "Potency": "inconclusive: 39.8 µM [inhibitor, partial curve]"}, {"compound": "Fc1cccc(/C=N/Nc2ccc3ccccc3n2)c1", "Potency": "inconclusive: 31.6 µM [inhibitor, single point]"}, {"compound": "CCn1c2ccccc2c2nnc(N3CCN(c4cccc(Cl)c4)CC3)nc21", "Potency": "inconclusive: 35.5 µM [inhibitor, single point]"}, {"compound": "C/C(CC(=O)Nc1c(C)cc(C)cc1C)=N\\NC(=O)c1cnccn1", "Potency": "inconclusive: 11.2 µM [inhibitor, full curve]"}, {"compound": "CCc1ccc(C(=O)CC2(O)C(=O)N(CCc3ccccc3)c3ccc(Br)cc32)cc1", "note": "(configuration not stated)", "Potency": "inactive"}, {"compound": "Cn1nc(C(F)(F)F)c(C(=O)Nc2ccc(F)cc2F)c1Sc1cccc(C(F)(F)F)c1", "Potency": "inconclusive: 1.78 µM [inhibitor, full curve]"}, {"compound": "CCC1=Nc2cc(C(=O)NCCc3ccc(OC)c(OC)c3)ccc2Sc2ccccc21", "Potency": "inconclusive: 5.62 µM [inhibitor, full curve, poor fit]"}, {"compound": "COc1ccc(Cl)cc1N1C(=O)C2CCCN2C1c1sccc1C", "note": "(configuration not stated)", "Potency": "inconclusive: 70.8 µM [inhibitor, partial curve]"}, {"compound": "COc1ccc(Nc2c(-c3ccc(C)cc3)nc3cnccn23)cc1", "Potency": "inconclusive: 11.2 µM [inhibitor, full curve]"}, {"compound": "Brc1ccc(-c2nc(N/N=C/c3cccnc3)c3ccccc3n2)cc1", "Potency": "inactive"}, {"compound": "CCC1=NN(C(=O)c2ccc(Br)cc2)C(O)(c2ccc(C)cc2)C1", "note": "(configuration not stated)", "Potency": "inconclusive: 14 µM [inhibitor, partial curve]"}, {"compound": "CN(C)c1ccc(/C=C/c2cc[n+]([O-])cc2)cc1", "Potency": "inconclusive: 22.4 µM [inhibitor, partial curve]"}, {"compound": "Cc1ccc(S(=O)(=O)NC(=O)NN2CCCCCC2)cc1", "Potency": "inconclusive: 14.1 µM [inhibitor, partial curve]"}, {"compound": "COc1cccc(C(Nc2ccccn2)c2c(NC(=O)c3ccco3)sc(C)c2C)c1", "note": "(configuration not stated)", "Potency": "inconclusive: 22.2 µM [inhibitor, partial curve]"}, {"compound": "COC(=O)Cc1csc(Nc2c(C)n(C)n(-c3ccccc3)c2=O)n1", "Potency": "inconclusive: 11.2 µM [inhibitor, partial curve]"}, {"compound": "CCCCn1nnnc1NCc1ccc(N2CCCC2)cc1", "Potency": "inconclusive: 50.1 µM [inhibitor, single point]"}, {"compound": "Cc1ccc(S(=O)(=O)c2nnn3c2nc(NC2CCCCCC2)c2sccc23)cc1C", "Potency": "inactive"}, {"compound": "N#C/C(=C/c1ccc(N2CCCCC2)o1)C(=O)Nc1ccc2ccccc2c1", "Potency": "inconclusive: 50.1 µM [inhibitor, single point]"}, {"compound": "CCOC(=O)c1sc2ncn(CC(=O)N(CC)CC)c(=O)c2c1C", "Potency": "inconclusive: 49.7 µM [inhibitor, partial curve, poor fit]"}, {"compound": "N#Cc1c(N)nc(SCc2ccccn2)c(C#N)c1-c1cccs1", "Potency": "inactive"}, {"compound": "CSc1nsc(NC(=O)CCNC(=O)c2ccc([N+](=O)[O-])cc2)n1", "Potency": "inconclusive: 56.2 µM [inhibitor, single point]"}, {"compound": "Cc1cccc(C)c1OCC(=O)N(Cc1ccccc1F)C1CCS(=O)(=O)C1", "note": "(configuration not stated)", "Potency": "inactive"}, {"compound": "COc1ccc(OCCNc2c([N+](=O)[O-])c(=O)oc3ccccc23)cc1", "Potency": "inconclusive: 28.2 µM [activator, partial curve, poor fit]"}, {"compound": "Cc1ccc(-c2cc3c(nn2)-c2ccccc2C3=O)cc1", "Potency": "inactive"}, {"compound": "O=C1CC(N(O)c2ccccc2)C(=O)N1c1ccc(Cl)c(Cl)c1", "note": "(configuration not stated)", "Potency": "inconclusive: 12.6 µM [inhibitor, partial curve]"}, {"compound": "CCOC(=O)NC(Nc1ccc(OC)cc1)(C(F)(F)F)C(F)(F)F", "Potency": "inconclusive: 15.7 µM [inhibitor, partial curve]"}, {"compound": "COc1ccc(O)c(-c2cc(-c3ccc(F)cc3)n[nH]2)c1", "Potency": "inactive"}, {"compound": "O=C(Cn1c(=O)oc2ccccc21)Nc1ccc(Cl)cc1Cl", "Potency": "inactive"}, {"compound": "CC(C)/C=N/NC(=O)c1cc(Br)ccc1O", "Potency": "inconclusive: 10 µM [inhibitor, full curve]"}, {"compound": "COC(=O)C1C(=O)C2=C(CC1C)NC(=O)CC2c1ccc(O)c(OC)c1", "note": "(configuration not stated)", "Potency": "inconclusive: 15.7 µM [inhibitor, partial curve]"}, {"compound": "O=C(NN1C(=O)c2ccccc2NC1c1ccc([N+](=O)[O-])o1)c1ccccc1", "note": "(configuration not stated)", "Potency": "inconclusive: 50.1 µM [activator, single point]"}]}]}
